Patent US8722849B2, “Polypeptides” (Novo Nordisk A/S, priority 2011, dated 2014)
The name of at least one read-out is uncertain. Starred links: 1 amine or outer side, 2 acyl side, 3 side chain; linkers in the order of their positions; H or OH if unused. Positions of bridges follow the written chain, without caps; N, C: chain ends. Non-standard residues stand in square brackets, D forms with d. Residues, ends and D or L forms follow the SMILES beside them. *: point of attachment. C20 diacid = O=C(O)CCCCCCCCCCCCCCCCCCC(=O)*; C18 diacid = O=C(O)CCCCCCCCCCCCCCCCC(=O)*; γGlu = O=C(O)[C@H](CCC(=O)[*:2])N[*:1]; Orn = NCCC[C@H](N)C(=O)O; AEEA = NCCOCCOCC(=O)O

Experiment: Assay (III) ThT fibrillation assay for physical stability
Format: physicochemical
Settings: ThT fibrillation assay
Method in brief: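 Freshly prepared formulations, pH-adjusted, with 1 μM ThT; four or eight replicates incubated at 37 °C under 960 rpm orbital shaking. Fluorescence (ex 444/em 485 nm) read every 20 min; […]. Peptide concentration measured by RP-HPLC before and after the run.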

Structure (SMILES)	ThT pH 4.0 recovery (%)	ThT pH 4.0 recovery [%]
CC[C@H](C)[C@H](NC(=O)[C@@H]1CCCN1C(=O)CNC(=O)[C@H](Cc1ccccc1)NC(=O)[C@H](CC(N)=O)NC(=O)[C@H](CC(N)=O)NC(=O)[C@H](CO)NC(=O)[C@H](CO)NC(=O)[C@H](CCCNC(=N)N)NC(=O)[C@H](Cc1c[nH]cn1)NC(=O)[C@H](CC(C)C)NC(=O)[C@H](Cc1ccccc1)NC(=O)[C@H](CCC(=O)O)NC(=O)[C@H](C)NC(=O)[C@H](CC(C)C)NC(=O)[C@H](CCCNC(=N)N)NC(=O)[C@H](CCC(N)=O)NC(=O)[C@@H](NC(=O)[C@H](C)NC(=O)[C@@H]1CSSC[C@H](NC(=O)[C@H](CCCN)NC(=O)[C@@H](CCCNC(=N)N)NC(=O)[C@@H](CCCNC(=N)N)NC(=O)COCCOCCNC(=O)COCCOCCNC(=O)CC[C@H](NC(=O)CCCCCCCCCCCCCCCCC(=O)O)C(=O)O)C(=O)N[C@@H](CC(N)=O)C(=O)N[C@@H]([C@@H](C)O)C(=O)N[C@@H](C)C(=O)N[C@@H]([C@@H](C)O)C(=O)N1)[C@@H](C)O)C(=O)N[C@@H](CC(C)C)C(=O)N1CCC[C@H]1C(=O)N1CCC[C@H]1C(=O)N[C@H](C(=O)N[C@@H](CC(N)=O)C(=O)N[C@H](C(=O)NCC(=O)N[C@@H](CO)C(=O)N[C@@H](CC(N)=O)C(=O)N[C@H](C(=O)N[C@@H](Cc1ccc(O)cc1)C(N)=O)[C@@H](C)O)C(C)C)[C@@H](C)O [Example 120, N-alpha-[2-(2-{2-[2-(2-{2-[(S)-4-Carboxy-4-(17-carboxyheptadecanoylamino)butyrylamino]ethoxy}ethoxy)acetylamino]ethoxy}ethoxy)acetyl]-D-Arg-D-Arg-[Orn1,Glu14,His17,Arg18]-pramlintide] ({C18 diacid-γGlu-AEEA-AEEA}-[dR][dR][Orn]CNTATCATQRLAEFLHRSSNNFGPILPPTNVGSNTY-NH2; disulfide 4-9 (inferred); C-terminus assumed)	86	–
CC[C@H](C)[C@H](NC(=O)[C@@H]1CCCN1C(=O)CNC(=O)[C@H](Cc1ccccc1)NC(=O)[C@H](CC(N)=O)NC(=O)[C@H](CC(N)=O)NC(=O)[C@H](CO)NC(=O)[C@H](CO)NC(=O)[C@H](Cc1c[nH]cn1)NC(=O)[C@H](Cc1c[nH]cn1)NC(=O)[C@H](CC(C)C)NC(=O)[C@H](Cc1ccccc1)NC(=O)[C@H](CCC(=O)O)NC(=O)[C@H](C)NC(=O)[C@H](CC(C)C)NC(=O)[C@H](CCCNC(=N)N)NC(=O)[C@H](CCC(N)=O)NC(=O)[C@@H](NC(=O)[C@H](C)NC(=O)[C@@H]1CSSC[C@H](NC(=O)[C@H](Cc2c[nH]cn2)NC(=O)CC[C@H](NC(=O)CCCCCCCCCCCCCCCCCCC(=O)O)C(=O)O)C(=O)N[C@@H](CC(N)=O)C(=O)N[C@@H]([C@@H](C)O)C(=O)N[C@@H](C)C(=O)N[C@@H]([C@@H](C)O)C(=O)N1)[C@@H](C)O)C(=O)N[C@@H](CC(C)C)C(=O)N1CCC[C@H]1C(=O)N1CCC[C@H]1C(=O)N[C@H](C(=O)N[C@@H](CC(N)=O)C(=O)N[C@H](C(=O)NCC(=O)N[C@@H](CO)C(=O)N[C@@H](Cc1c[nH]cn1)C(=O)N[C@H](C(=O)N[C@@H](Cc1ccc(O)cc1)C(N)=O)[C@@H](C)O)C(C)C)[C@@H](C)O [Example 76, N-alpha-[(S)-4-Carboxy-4-(19-carboxynonadecanoylamino)butyryl]-[His1,Glu14,His17,His35]-pramlintide] ({C20 diacid-γGlu}-HCNTATCATQRLAEFLHHSSNNFGPILPPTNVGSHTY-NH2; disulfide 2-7 (inferred); C-terminus assumed)	100	100
CC[C@H](C)[C@H](NC(=O)[C@@H]1CCCN1C(=O)CNC(=O)[C@H](Cc1ccccc1)NC(=O)[C@H](CC(N)=O)NC(=O)[C@H](CC(N)=O)NC(=O)[C@H](CO)NC(=O)[C@H](CO)NC(=O)[C@H](Cc1c[nH]cn1)NC(=O)[C@H](Cc1c[nH]cn1)NC(=O)[C@H](CC(C)C)NC(=O)[C@H](Cc1ccccc1)NC(=O)[C@H](CCC(=O)O)NC(=O)[C@H](C)NC(=O)[C@H](CC(C)C)NC(=O)[C@H](CCCNC(=N)N)NC(=O)[C@H](CCC(N)=O)NC(=O)[C@@H](NC(=O)[C@H](C)NC(=O)[C@@H]1CSSC[C@H](NC(=O)CC[C@H](NC(=O)CCCCCCCCCCCCCCCCCCC(=O)O)C(=O)O)C(=O)N[C@@H](CC(N)=O)C(=O)N[C@@H]([C@@H](C)O)C(=O)N[C@@H](C)C(=O)N[C@@H]([C@@H](C)O)C(=O)N1)[C@@H](C)O)C(=O)N[C@@H](CC(C)C)C(=O)N1CCC[C@H]1C(=O)N1CCC[C@H]1C(=O)N[C@H](C(=O)N[C@@H](CC(N)=O)C(=O)N[C@H](C(=O)NCC(=O)N[C@@H](CO)C(=O)N[C@@H](CC(N)=O)C(=O)N[C@H](C(=O)N1CCC[C@H]1C(N)=O)[C@@H](C)O)C(C)C)[C@@H](C)O [Example 104, N-alpha-[(S)-4-Carboxy-4-(19-carboxynonadecanoylamino)butyryl]-[des1,Glu14,His17,Pro37]-pramlintide] ({C20 diacid-γGlu}-CNTATCATQRLAEFLHHSSNNFGPILPPTNVGSNTP-NH2; disulfide 1-6 (inferred))	3	–

Further lines, results first:

ThT pH 4.0 recovery (%)	ThT pH 4.0 recovery [%]	Structure (SMILES)
2.3	–	CC[C@H](C)[C@H](NC(=O)[C@@H]1CCCN1C(=O)CNC(=O)[C@H](Cc1ccccc1)NC(=O)[C@H](CC(N)=O)NC(=O)[C@H](CC(N)=O)NC(=O)[C@H](CO)NC(=O)[C@H](CO)NC(=O)[C@H](Cc1c[nH]cn1)NC(=O)[C@H](Cc1c[nH]cn1)NC(=O)[C@H](CC(C)C)NC(=O)[C@H](Cc1ccccc1)NC(=O)[C@H](CCC(=O)O)NC(=O)[C@H](C)NC(=O)[C@H](CC(C)C)NC(=O)[C@H](CCCNC(=N)N)NC(=O)[C@H](CCC(N)=O)NC(=O)[C@@H](NC(=O)[C@H](C)NC(=O)[C@@H]1CSSC[C@H](NC(=O)[C@H](CCC(=O)O)NC(=O)[C@H](CCCNC(=N)N)NC(=O)[C@H](CCC(=O)O)NC(=O)[C@H](CCC(=O)O)NC(=O)CCCCCCCCCCCCCCCCCCC(=O)O)C(=O)N[C@@H](CC(N)=O)C(=O)N[C@@H]([C@@H](C)O)C(=O)N[C@@H](C)C(=O)N[C@@H]([C@@H](C)O)C(=O)N1)[C@@H](C)O)C(=O)N[C@@H](CC(C)C)C(=O)N1CCC[C@H]1C(=O)N1CCC[C@H]1C(=O)N[C@H](C(=O)N[C@@H](CC(N)=O)C(=O)N[C@H](C(=O)NCC(=O)N[C@@H](CO)C(=O)N[C@@H](CC(N)=O)C(=O)N[C@H](C(=O)N1CCC[C@H]1C(N)=O)[C@@H](C)O)C(C)C)[C@@H](C)O [Example 125, N-alpha-(19-carboxynonadecanoyl)-Glu-Glu-Arg-[Glu1,Glu14,His17,Pro37]-pramlintide] ({C20 diacid}-EERECNTATCATQRLAEFLHHSSNNFGPILPPTNVGSNTP-NH2; disulfide 5-10 (inferred); C-terminus assumed)
2.3	–	CC[C@H](C)[C@H](NC(=O)[C@@H]1CCCN1C(=O)CNC(=O)[C@H](Cc1ccccc1)NC(=O)[C@H](CC(N)=O)NC(=O)[C@H](CC(N)=O)NC(=O)[C@H](CO)NC(=O)[C@H](CO)NC(=O)[C@H](Cc1c[nH]cn1)NC(=O)[C@H](Cc1c[nH]cn1)NC(=O)[C@H](CC(C)C)NC(=O)[C@H](Cc1ccccc1)NC(=O)[C@H](CCC(=O)O)NC(=O)[C@H](C)NC(=O)[C@H](CC(C)C)NC(=O)[C@H](CCCNC(=N)N)NC(=O)[C@H](CCC(N)=O)NC(=O)[C@@H](NC(=O)[C@H](C)NC(=O)[C@@H]1CSSC[C@H](NC(=O)[C@H](CCC(=O)O)NC(=O)[C@H](CCCNC(=N)N)NC(=O)[C@H](CCC(=O)O)NC(=O)CC[C@H](NC(=O)CCCCCCCCCCCCCCCCCCC(=O)O)C(=O)O)C(=O)N[C@@H](CC(N)=O)C(=O)N[C@@H]([C@@H](C)O)C(=O)N[C@@H](C)C(=O)N[C@@H]([C@@H](C)O)C(=O)N1)[C@@H](C)O)C(=O)N[C@@H](CC(C)C)C(=O)N1CCC[C@H]1C(=O)N1CCC[C@H]1C(=O)N[C@H](C(=O)N[C@@H](CC(N)=O)C(=O)N[C@H](C(=O)NCC(=O)N[C@@H](CO)C(=O)N[C@@H](CC(N)=O)C(=O)N[C@H](C(=O)N1CCC[C@H]1C(N)=O)[C@@H](C)O)C(C)C)[C@@H](C)O [Example 123, N-alpha-[(S)-4-Carboxy-4-(19-carboxynonadecanoylamino)butyryl]-Glu-Arg-[Glu1,Glu14,His17,Pro37]-pramlintide] ({C20 diacid-γGlu}-ERECNTATCATQRLAEFLHHSSNNFGPILPPTNVGSNTP-NH2; disulfide 4-9 (inferred))
93	93	CC[C@H](C)[C@H](NC(=O)[C@@H]1CCCN1C(=O)CNC(=O)[C@H](Cc1ccccc1)NC(=O)[C@H](CC(N)=O)NC(=O)[C@H](CCC(N)=O)NC(=O)[C@H](CO)NC(=O)[C@H](CO)NC(=O)[C@H](Cc1c[nH]cn1)NC(=O)[C@H](Cc1c[nH]cn1)NC(=O)[C@H](CC(C)C)NC(=O)[C@H](Cc1ccccc1)NC(=O)[C@H](CCC(=O)O)NC(=O)[C@H](C)NC(=O)[C@H](CC(C)C)NC(=O)[C@H](CCCNC(=N)N)NC(=O)[C@H](CCC(N)=O)NC(=O)[C@@H](NC(=O)[C@H](C)NC(=O)[C@@H]1CSSC[C@H](NC(=O)[C@H](CCCCN)NC(=O)CC[C@H](NC(=O)CCCCCCCCCCCCCCCCCCC(=O)O)C(=O)O)C(=O)N[C@@H](CC(N)=O)C(=O)N[C@@H]([C@@H](C)O)C(=O)N[C@@H](C)C(=O)N[C@@H]([C@@H](C)O)C(=O)N1)[C@@H](C)O)C(=O)N[C@@H](CC(C)C)C(=O)N1CCC[C@H]1C(=O)N1CCC[C@H]1C(=O)N[C@H](C(=O)N[C@@H](CC(N)=O)C(=O)N[C@H](C(=O)NCC(=O)N[C@@H](CO)C(=O)N[C@@H](CC(N)=O)C(=O)N[C@H](C(=O)N1CCC[C@H]1C(N)=O)[C@@H](C)O)C(C)C)[C@@H](C)O [Example 130, N-alpha-[(S)-4-Carboxy-4-(19-carboxynonadecanoylamino)butyryl]-[Glu14,His17,Gln21,Pro37]-pramlintide] ({C20 diacid-γGlu}-KCNTATCATQRLAEFLHHSSQNFGPILPPTNVGSNTP-NH2; disulfide 2-7 (inferred))
